Source: a collection of fitness landscapes (doi:10.1126/science.1257360)
This is one part of the list.

B1: PhoQ; a variant is named by its letters at X, in order, P23837 (parent)
chain: MKKLLRLFFPLSLRVRFLLATAAVVLVLSLAYGMVALIGYSVSFDKTTFRLLRGESNLFYTLAKWENNKLHVELPENIDKQSPTMTLIYDENGQLLWAQRDVPWLMKMIQPDWLKSNGFHEIEADVNDTSLLLSGDHSIQQQLQEVREDDDDAEMTHSVAVNVYPATSRMPKLTIVVVDTIPVELKSSYMVWSWFIYVLSANLLLVIPLLWVAAWWSLRPIEALAKEVRELEEHNRELLNPATTRELTSLVRNLNRLLKSERERYDKYRTTLTDLTHSLKTPLXXLQXXLRSLRSEKMSVSDAEPVMLEQISRISQQIGYYLHRASMRGGTLLSRELHPVAPLLDNLTSALNKVYQRKGVNISLDISPEISFVGEQNDFVEVMGNVLDNACKYCLEFVEISARQTDEHLYIVVEDDGPGIPLSKREVIFDRGQRVDTLRPGQGVGLAVAREITEQYEGKIVAGESMLGGARMEVIFGRQHSAPKDE

Variants of: B1
Assay: enrichment ratio after two sorts for PhoP signalling (ratio (wild type AVST 3.29)); higher = more functional
Conditions: with PhoP (E. coli)

Row | Variant | enrichment ratio
1 | FSHH | ≤ 0.25
2 | SMSD | 1.03
3 | VDYP | ≤ 0.25
4 | RSAP | ≤ 0.25
5 | ETVA | ≤ 0.25
6 | NRTW | ≤ 0.25
7 | VMEY | ≤ 0.25
8 | RMAF | ≤ 0.25
9 | PFYW | ≤ 0.25
10 | GNHW | ≤ 0.25
11 | SQVE | 3.4
12 | QRMM | ≤ 0.25
13 | LSTS | ≤ 0.25
14 | NFLR | ≤ 0.25
15 | FSSC | ≤ 0.25
16 | YYNL | ≤ 0.25
17 | FVGR | ≤ 0.25
18 | GNAF | 0.635
19 | KIAH | ≤ 0.25
20 | KCMM | ≤ 0.25
21 | YPQK | ≤ 0.25
22 | KMSF | 0.416
23 | FFTV | ≤ 0.25
24 | HEQT | ≤ 0.25
25 | FLCN | ≤ 0.25

Row | Variant | enrichment ratio
26 | VWVL | ≤ 0.25
27 | TRYY | ≤ 0.25
28 | QQMR | ≤ 0.25
29 | ADDL | ≤ 0.25
30 | LRHV | ≤ 0.25
31 | HPNQ | ≤ 0.25
32 | ILAE | ≤ 0.25
33 | PLRP | ≤ 0.25
34 | IFLK | ≤ 0.25
35 | RQRM | ≤ 0.25
36 | HRAH | ≤ 0.25
37 | TGAR | ≤ 0.25
38 | TITV | 15.1
39 | HRWC | ≤ 0.25
40 | SHEV | ≤ 0.25
41 | PTTS | ≤ 0.25
42 | IRDC | ≤ 0.25
43 | MAHY | 20.2
44 | NEGD | ≤ 0.25
45 | KDHA | ≤ 0.25
46 | LAAQ | ≤ 0.25
47 | FGGE | ≤ 0.25
48 | VKSH | ≤ 0.25
49 | RAED | ≤ 0.25
50 | KLAW | ≤ 0.25

Row | Variant | enrichment ratio
51 | PWYW | ≤ 0.25
52 | VAKP | ≤ 0.25
53 | HTKN | ≤ 0.25
54 | PSDG | ≤ 0.25
55 | LGPC | ≤ 0.25
56 | VTEH | ≤ 0.25
57 | KSFP | ≤ 0.25
58 | VWWQ | ≤ 0.25
59 | DYQV | ≤ 0.25
60 | PMSH | ≤ 0.25
61 | KAHN | ≤ 0.25
62 | MDSG | ≤ 0.25
63 | NREI | ≤ 0.25
64 | FFIV | ≤ 0.25
65 | RFYM | ≤ 0.25
66 | VTCG | ≤ 0.25
67 | EHNY | ≤ 0.25
68 | HNYF | ≤ 0.25
69 | IDFS | ≤ 0.25
70 | NCER | ≤ 0.25
71 | ANQL | 1.42
72 | MCPH | ≤ 0.25
73 | DHQM | ≤ 0.25
74 | ADRS | ≤ 0.25
75 | DLLK | ≤ 0.25

Row | Variant | enrichment ratio
76 | ENKP | ≤ 0.25
77 | RMDV | ≤ 0.25
78 | KPII | ≤ 0.25
79 | TADV | 0.922
80 | PTWV | ≤ 0.25
81 | HTDH | ≤ 0.25
82 | ANDF | ≤ 0.25
83 | QWDS | ≤ 0.25
84 | PTQV | ≤ 0.25
85 | QHHK | ≤ 0.25
86 | GTSR | ≤ 0.25
87 | FYAH | ≤ 0.25
88 | LRAR | ≤ 0.25
89 | DFRH | ≤ 0.25
90 | LFHK | ≤ 0.25
91 | WPAF | ≤ 0.25
92 | SLER | ≤ 0.25
93 | WEQC | ≤ 0.25
94 | KVLR | ≤ 0.25
95 | ELMP | ≤ 0.25
96 | MRPQ | ≤ 0.25
97 | VKQD | ≤ 0.25
98 | DCKE | ≤ 0.25
99 | IWQS | ≤ 0.25
100 | TKDK | ≤ 0.25

Row | Variant | enrichment ratio
101 | EREV | ≤ 0.25
102 | EEHQ | ≤ 0.25
103 | LDMM | ≤ 0.25
104 | WFCK | ≤ 0.25
105 | TMPD | ≤ 0.25
106 | HCWP | ≤ 0.25
107 | RTYL | ≤ 0.25
108 | YFLM | ≤ 0.25
109 | IWSP | ≤ 0.25
110 | EEYP | ≤ 0.25
111 | LNYM | ≤ 0.25
112 | NLSK | 0.526
113 | MRFP | ≤ 0.25
114 | VDIL | ≤ 0.25
115 | RPQK | ≤ 0.25
116 | HPLK | ≤ 0.25
117 | DGKF | ≤ 0.25
118 | VAYL | 3.85
119 | MKKV | ≤ 0.25
120 | DMRF | ≤ 0.25
121 | NTRK | ≤ 0.25
122 | YCRP | ≤ 0.25
123 | TIWR | 0.859
124 | KIHG | ≤ 0.25
125 | QIVI | ≤ 0.25

Row | Variant | enrichment ratio
126 | RQLK | ≤ 0.25
127 | TDPV | ≤ 0.25
128 | MDDE | ≤ 0.25
129 | ANNL | 15.7
130 | FWGM | ≤ 0.25
131 | WLSN | ≤ 0.25
132 | VKIL | ≤ 0.25
133 | QAKK | ≤ 0.25
134 | TGDE | ≤ 0.25
135 | YLWT | ≤ 0.25
136 | DEFL | ≤ 0.25
137 | WWCV | ≤ 0.25
138 | YFDE | ≤ 0.25
139 | QDMQ | ≤ 0.25
140 | SFIV | ≤ 0.25
141 | MKVD | ≤ 0.25
142 | DLMW | ≤ 0.25
143 | EKSN | ≤ 0.25
144 | HTGN | ≤ 0.25
145 | QFGG | ≤ 0.25
146 | FIQV | ≤ 0.25
147 | QKQY | ≤ 0.25
148 | TVMN | 8.14
149 | LCTI | ≤ 0.25
150 | QMKC | ≤ 0.25

Row | Variant | enrichment ratio
151 | LDHV | ≤ 0.25
152 | DQPG | ≤ 0.25
153 | WNVG | ≤ 0.25
154 | GLCH | 2.53
155 | QRVD | ≤ 0.25
156 | GNVW | ≤ 0.25
157 | NKCW | ≤ 0.25
158 | YSNK | ≤ 0.25
159 | LYQG | ≤ 0.25
160 | KTAG | ≤ 0.25
161 | KAMA | ≤ 0.25
162 | IHTS | ≤ 0.25
163 | AILS | 9.63
164 | KGWS | ≤ 0.25
165 | WDRT | ≤ 0.25
166 | LWCA | ≤ 0.25
167 | YWKK | ≤ 0.25
168 | HPHC | ≤ 0.25
169 | ERPF | ≤ 0.25
170 | VNRV | ≤ 0.25
171 | FPAD | ≤ 0.25
172 | TCMD | ≤ 0.25
173 | IIGL | ≤ 0.25
174 | IPWI | ≤ 0.25
175 | ITYF | ≤ 0.25

Row | Variant | enrichment ratio
176 | DKCT | ≤ 0.25
177 | NKWG | ≤ 0.25
178 | FFMY | ≤ 0.25
179 | GEWW | ≤ 0.25
180 | HHWR | ≤ 0.25
181 | YCCD | ≤ 0.25
182 | KPTP | ≤ 0.25
183 | YTMK | ≤ 0.25
184 | GFIM | ≤ 0.25
185 | YHKN | ≤ 0.25
186 | VLPK | ≤ 0.25
187 | PSNI | ≤ 0.25
188 | PNAD | ≤ 0.25
189 | VEIW | ≤ 0.25
190 | FKHV | ≤ 0.25
191 | PHWI | ≤ 0.25
192 | PMVT | ≤ 0.25
193 | AWMW | ≤ 0.25
194 | FSAC | ≤ 0.25
195 | QTFG | 2.14
